Reference: paper PMC4336329 (PLoS ONE, 2015)
Among all 310,000 compounds or so, about 14,000 (4.5%) showed an effect of 50% or more. The effect is printed as a negative number. This is one part of the list.

What follows are molecules tested against human ether-à-go-go-related gene (hERG) potassium channel (human, UniProt Q12809) (assay: primary screen, population patch clamp on CHO cells stably expressing hERG).
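Also: peak tail current of the secondary pulse compared with the same well before compound.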

Chain of human ether-à-go-go-related gene (hERG) potassium channel (Q12809 whole entry, looked up): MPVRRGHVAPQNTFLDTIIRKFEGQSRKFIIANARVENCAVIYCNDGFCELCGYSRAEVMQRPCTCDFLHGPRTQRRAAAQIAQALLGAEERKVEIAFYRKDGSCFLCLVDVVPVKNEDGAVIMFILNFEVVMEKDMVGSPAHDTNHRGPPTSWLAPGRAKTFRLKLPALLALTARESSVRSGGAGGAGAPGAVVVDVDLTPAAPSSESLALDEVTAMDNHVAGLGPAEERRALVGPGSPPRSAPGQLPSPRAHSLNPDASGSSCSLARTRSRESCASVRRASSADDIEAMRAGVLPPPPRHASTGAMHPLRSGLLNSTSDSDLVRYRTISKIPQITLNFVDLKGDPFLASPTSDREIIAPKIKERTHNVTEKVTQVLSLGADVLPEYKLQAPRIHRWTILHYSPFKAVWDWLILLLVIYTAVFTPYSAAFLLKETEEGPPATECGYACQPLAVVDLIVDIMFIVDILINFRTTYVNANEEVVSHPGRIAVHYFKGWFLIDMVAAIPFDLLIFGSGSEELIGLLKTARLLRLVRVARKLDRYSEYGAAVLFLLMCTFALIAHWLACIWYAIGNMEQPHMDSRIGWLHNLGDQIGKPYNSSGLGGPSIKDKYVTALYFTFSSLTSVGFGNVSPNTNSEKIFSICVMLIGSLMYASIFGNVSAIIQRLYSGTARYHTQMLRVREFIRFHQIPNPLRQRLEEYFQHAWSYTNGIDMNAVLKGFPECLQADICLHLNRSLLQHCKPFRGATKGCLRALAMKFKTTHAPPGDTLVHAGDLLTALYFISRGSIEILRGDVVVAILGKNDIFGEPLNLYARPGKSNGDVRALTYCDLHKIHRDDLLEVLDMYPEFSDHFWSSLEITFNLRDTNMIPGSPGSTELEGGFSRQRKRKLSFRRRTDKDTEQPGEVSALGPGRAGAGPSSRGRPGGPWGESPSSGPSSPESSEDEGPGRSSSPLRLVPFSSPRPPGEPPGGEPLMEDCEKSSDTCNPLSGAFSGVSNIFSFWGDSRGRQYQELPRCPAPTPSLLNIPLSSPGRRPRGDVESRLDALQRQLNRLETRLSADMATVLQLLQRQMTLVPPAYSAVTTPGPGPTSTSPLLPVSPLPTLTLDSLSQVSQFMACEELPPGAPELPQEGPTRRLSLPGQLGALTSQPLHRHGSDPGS

SMILES	hERG current change (%, negative = inhibition) at 10uM [%]
O=S(=O)(NCc1csc(-c2cccnc2)n1)c1cccs1	-3.35
C=Cn1nc(C)c2ccccc2c1=O	5.68
COCCCNC(=S)Nc1ccccc1C	22.1
COc1ccc(CN(C)C(=O)CNC(=O)c2ccc(C)cc2)cc1	10.4
COC(=O)c1cc(Cl)c(NC(=O)c2cc3ccccc3o2)cc1OC	7.67
O=C(NC(Nc1nc2ccccc2s1)(C(F)(F)F)C(F)(F)F)c1ccccc1	17.5
Cn1c(=O)oc2cc(S(=O)(=O)N3CCCC(C(=O)NCC4COc5ccccc5O4)C3)ccc21 (stereo not drawn)	-20
O=C(NC1CCN(C(=S)Nc2ccccc2Cl)CC1)C1CCCCC1	14
COc1ccc(Br)cc1C(C[N+](=O)[O-])c1c(N)n(C)c(=O)n(C)c1=O (stereo not drawn)	-1.32
CN1CCN(CC#CCOc2ccc(Cl)cc2)CC1.O=C(O)C(=O)O	-0.0359
C/C(N)=C(/C#N)C(=O)COC(=O)CNS(=O)(=O)c1ccc2ccccc2c1	5.38
CC(C)c1ccc(C2C(C#N)=C(N)N3C(=C2C#N)Sc2ccccc23)cc1 (stereo not drawn)	10.9
CCC(=O)N/C(N)=N/c1nc(C)c2cc(C)c(C)cc2n1	10.6
Cc1cc(S(=O)(=O)N2CCOCC2)ccc1OCC(=O)N1CCCC1	22.8
CC(Cc1n[nH]c(=S)n1N)c1ccccc1 (stereo not drawn)	19.8
COc1ccc(/C=C/c2c(-c3ccc(OC)cc3)sc3ccc(N4CCOCC4)cc23)cc1	1.1
CCc1ccc(-c2cc(C)no2)cc1S(=O)(=O)NCc1ccccc1OC	-15.8
CC1CCc2nc3ccc(S(=O)(=O)N4CCC(C(=O)O)CC4)cc3c(C(=O)O)c2C1 (stereo not drawn)	16.7
O=C(O)CSCC(=O)Nc1ccc(S(=O)(=O)N2CCCCC2)cc1	-6.15

SMILES	hERG current change (%, negative = inhibition) at 10uM [%]
CN(C1=NC(=O)C(CC(=O)Nc2ccc(Br)cc2)S1)c1ccc(O)cc1 (stereo not drawn)	-18.9
CCOC(=O)c1cnn(-c2ncnc3c2oc2ccccc23)c1N	5.61
CCOC(=O)C1C(c2cc(OC)c(O)c(OC)c2)NC(=S)NC1(O)C(F)(F)F (stereo not drawn)	6.12
Cc1ccc(-c2nc(C3CCN(S(C)(=O)=O)CC3)no2)cc1	-4.33
COc1cc(C(=O)N2CCC(n3cnc4cc(F)ccc43)CC2)cc(OC)c1OC	-56.9
O=C1CN(S(=O)(=O)c2cccc(Cl)c2Cl)c2ccccc2N1	3.58
Cc1nc([N+](=O)[O-])cn1CC(=O)Nc1ccc([N+](=O)[O-])cc1	10.8
CCn1c(Cc2cccs2)nnc1SCC(=O)NC(C)(C)C	14.1
CCn1c2ccccc2c2cc(NC(=O)COC(=O)c3ccc(O)cc3)ccc21	12.4
O=C(O)c1cc(-n2cccc2)ccc1N1CCOCC1	6.18
Cc1ccccc1OCCC(=O)OCC(=O)c1c(N)n(CC(C)C)c(=O)n(C)c1=O	-75.2
COc1ccc(C(=O)Nc2nnc(C)s2)cc1S(=O)(=O)N1CCOCC1	-14
Oc1oc(-c2ccccc2Br)nc1C=Nc1ccc(Br)cn1	10.8
CC(=NCc1ccc2c(c1)OCO2)c1c(O)n(C)c(=O)n(C)c1=O	-6.14
Nc1ncc([N+](=O)[O-])cc1S(=O)(=O)c1ccccc1	8.32
c1ccc(-c2nc(NCC3CCCO3)c3ccccc3n2)nc1 (stereo not drawn)	-23.3
Clc1ccc2scc(CN3CCCC3)c2c1	-9.81
N#Cc1ccc(OC(=O)Cc2ccsc2)cc1	30.1
Cl.Fc1ccc(CN2C3=NCCCN3c3ccccc32)cc1	-71.2

SMILES	hERG current change (%, negative = inhibition) at 10uM [%]
C/C(N)=C(/C#N)C(=O)CSc1nnc(Nc2c(C)cccc2C)s1	-6.78
CCN(c1ccccc1)P(=O)(Nc1ccccc1)Nc1ccccc1	0.944
CCOC(=O)c1[nH]c(C)c(C(=O)N(CC)CC)c1C	4.54
Cc1c(Cl)cccc1-n1c(-c2cccnc2)n[nH]c1=S	25.2
CC(NC(=O)CN(C1CCCCC1)S(C)(=O)=O)c1ccccc1 (stereo not drawn)	0.428
COc1ccc(-c2nc(CS(=O)CC(=O)NCc3cccnc3)c(C)o2)cc1OC (stereo not drawn)	-2.9
CC(=O)Nc1ccc(S(=O)(=O)N2CCC(c3nc4ccccc4[nH]3)CC2)cc1	-18.4
C/C(=N\NC(=O)c1cccc(O)c1)c1ccc(NC(=O)Cc2ccccc2)cc1	-27
CC1(C)CC(=O)C(CCC(=O)c2ccccc2)C(C)(C)N1 (stereo not drawn)	0.958
COc1cc(OC)c(C2=NOC(C(=O)NCc3cccnc3)C2)cc1Cl (stereo not drawn)	13
CN1CCN(C(=O)C2CCC(=O)N(Cc3cccc(C(F)(F)F)c3)C2)CC1 (stereo not drawn)	-2.93
COc1ccc(CC2S/C(=C(\C#N)C(=O)NCc3ccco3)N(c3ccc(C)cc3)C2=O)cc1 (stereo not drawn)	11.5
CCC(C)NC(=O)Cn1ccc2cc(S(=O)(=O)N3CCCCCC3)ccc21 (stereo not drawn)	-8.77
Cc1ccc(S(=O)(=O)N2CCC(C(=O)NCCCN3CCOCC3)CC2)cc1	-11.4
O=C(CSc1nc2ccccc2[nH]1)Nc1ccc(N2CCOCC2)cc1	8.65
C/C(CC(=O)Nc1cccc(Cl)c1Cl)=N\NC(=O)C(=O)NC1CCCCC1	-10.5
COC(=O)c1ccccc1Nc1ccccc1	5.46
CCOC(=O)c1cnc(Nc2nc3ccccc3o2)nc1CSc1nnc(C)s1	-5.06
CCCCN1C(=O)C(=O)N(CC(=O)Nc2ccccc2C(=O)OCC)C1=O	8.29
